# Laboratory results reported in the supplement of paper PMC3334620.
# Whole data set: some 33,000 sequences, median “E-score (-0.5 to 0.5)” near -0.035, cut for the highest 2% near 0.34. The list shows a part of the results.
# Target: T1, Mot3 (UniProt P54785)
# T1 sequence: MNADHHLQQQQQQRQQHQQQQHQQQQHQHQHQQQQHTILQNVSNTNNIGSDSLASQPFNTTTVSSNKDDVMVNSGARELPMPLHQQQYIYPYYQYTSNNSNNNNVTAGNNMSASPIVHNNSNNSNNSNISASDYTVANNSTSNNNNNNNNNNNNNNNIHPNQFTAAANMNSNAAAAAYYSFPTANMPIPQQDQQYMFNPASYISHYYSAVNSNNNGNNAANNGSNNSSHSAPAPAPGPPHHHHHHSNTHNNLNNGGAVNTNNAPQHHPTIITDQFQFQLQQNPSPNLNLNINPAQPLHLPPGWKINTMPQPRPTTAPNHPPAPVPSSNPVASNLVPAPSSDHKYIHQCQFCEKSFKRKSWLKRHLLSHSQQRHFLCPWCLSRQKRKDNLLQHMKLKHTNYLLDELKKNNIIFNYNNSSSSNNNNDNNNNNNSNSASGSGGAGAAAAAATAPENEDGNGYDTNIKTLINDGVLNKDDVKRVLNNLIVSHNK
# Test: PBM E-score (8-mer binding enrichment) (E-score (-0.5 to 0.5)); higher = stronger / more preferred TF binding; most listed sequences are background and not binding sites
# Settings: protein concentration: 200 nM; construct: GST-full length
# Description: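 Universal 'all 10-mer' protein binding microarrays (Agilent AMADID 015681) probed with GST-tagged S. cerevisiae TFs (full-length or DBD) made by in vitro transcription/translation (PURExpress), about 100-200 nM. Bound TF was detected with fluorescent anti-GST. Each ungapped 8-mer (which stands for itself and its reverse complement) is scored by the PBM enrichment score (E-score), a modified Wilcoxon-Mann-Whitney statistic from -0.5 to +0.5, computed with the Universal PBM Analysis Suite. Scale: above 0.35 generally sequence-specific binding.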
row,Sequence,PBM E-score
1,GGCCTGAC,-0.288
2,ACTGGAAA,-0.0414
3,GACAAGCA,-0.0222
4,GAGCGAGA,-0.0812
5,ATTCTTTC,-0.0219
6,AAGCTCGT,-0.0262
7,CACTGGAA,-0.0105
8,GAACATTC,0.0734
9,AATTTGCG,0.0221
10,GCTGTACA,0.00276
11,ATGTGGGA,-0.142
12,CGAGGGTC,-0.201
13,CTTGACAA,0.223
14,GAGGCGAA,-0.144
15,GAGGCTAC,-0.201
16,AATAGGCA,0.479
17,AACAGCGA,-0.055
18,ATGAACAA,0.151
19,GAAGGACC,-0.328
20,GAATAGCC,-0.281
21,CGAGTTTC,-0.189
22,AGTGGTTG,0.0543
23,ACGGCGTG,0.0736
24,TAGCAACA,0.102
25,CCGCTAGC,-0.29

row,Sequence,PBM E-score
1,ACCTTACC,0.105
2,AGCTGTAT,-0.107
3,GGACGCGA,-0.126
4,CCTCTGCC,-0.287
5,ACCAATAG,-0.0857
6,AAGCACCA,-0.1
7,AATGCCCG,-0.316
8,ATTTGCCG,0.0365
9,CTCTCCTA,0.00346
10,AACATACG,0.237
11,AGTGCTTG,-0.00398
12,CGAATGTC,-0.114
13,TCCATGCA,0.0555
14,CACTCCGA,-0.15
15,AGCACGCT,-0.191
16,ACTCTACA,0.174
17,ACGAAGGA,0.0632
18,ACTGTAGG,0.248
19,TCTTAAAA,-0.00181
20,CTTAGTAA,0.0949
21,GTTATGGA,0.134
22,TCATTAAA,0.159
23,CTTACGTC,0.105
24,AAAGGTCG,-0.175
25,GACTGAGA,-0.0128

row,Sequence,PBM E-score
1,CTACTCCA,0.00062
2,ACTCGCCT,-0.161
3,AGGGTGGC,-0.18
4,CGCTCGAG,-0.0778
5,CATGGTGA,-0.056
6,GCGTCCCC,-0.362
7,CTCCACGC,-0.268
8,CCCTAGTA,0.029
9,ACCGACCT,-0.107
10,GATGGCCC,-0.229
11,GAAGACTA,-0.0617
12,GATAACAA,0.226
13,ATGGCGTA,-0.00384
14,ACTAACGG,-0.245
15,GCTACTTA,0.0159
16,ACCGGACC,-0.161
17,CCAATGTC,-0.209
18,CATGTGAA,0.243
19,CATGGCTC,-0.144
20,GGTCAAAA,0.106
21,CCCAGGGC,-0.256
22,AAAACTAC,0.0655
23,AGCTGGAC,-0.0576
24,CTACCTAA,0.00387
25,GACTCTGC,-0.215

row,Sequence,PBM E-score
1,GGAATGTA,0.0681
2,CTTTGGCA,-0.168
3,GGGCCAAC,-0.115
4,AAAAGGAA,0.36
5,AACAGGAT,0.0971
6,AGACCTCA,-0.0868
7,AGGACTCA,-0.0958
8,AACCTGAC,-0.0317
9,AGCTGAAA,-0.0409
10,AGGTACTC,0.333
11,ACCTGCGG,0.0115
12,CACGATCA,0.145
13,CGCATGCC,-0.0357
14,AATGTCCT,0.0196
15,ATGGCTCA,-0.291
16,GAGGGATC,-0.168
17,AGTCGGCG,-0.0568
18,GAAGTTTA,0.108
19,ACTCGTGC,-0.146
20,CCAACGCA,-0.0241
21,TAAGCAGA,-0.0481
22,GACGACTC,-0.285
23,ACCTTAGT,-0.00647
24,CCCAACGA,-0.0748
25,GAAGTTGC,-0.0479

row,Sequence,PBM E-score
1,ACCGATGG,-0.0753
2,AGCTATAC,0.0128
3,CGACATAA,0.0835
4,CTCGCAGC,-0.271
5,CAGTGGCG,-0.266
6,AGATGCTC,0.135
7,GTAGGCCA,0.00764
8,CGTCCCAG,-0.196
9,ACGTGTTG,0.338
10,AGCTCCAC,-0.159
11,AAATAAGG,0.0911
12,ATCGGCGC,0.0331
13,ACGCCTCA,0.0427
14,GCATTAAC,0.0848
15,GGTATAAC,0.0489
16,ACACGATG,0.199
17,AGGAAGAC,0.0213
18,AAGACGCA,-0.0452
19,GCGCCCGA,-0.186
20,AGTTTTAG,0.109
21,GTTACTTA,0.0259
22,TAGCGACA,0.0489
23,CACCAGAG,-0.0278
24,ACTGACAA,0.119
25,GCAAGTCA,0.00523

row,Sequence,PBM E-score
1,ACAACTAA,0.183
2,GGACATGA,-0.0365
3,ATCCTAAA,-0.0533
4,ACCTAATA,0.14
5,TCATCGGA,-0.18
6,TCGGGGCA,-0.188
7,CGCTAACC,-0.148
8,TAGGATAA,-0.0135
9,ATCGTCAC,0.0854
10,ACATTTTC,0.145
11,GACCTCCC,-0.32
12,CCAGAAGG,0.2
13,GTGCTTAA,0.0807
14,ACGGACAT,-0.0901
15,CACAAAGG,0.15
16,AGCAGACA,-0.0512
17,CCCACTGA,-0.217
18,CCCAGTCC,-0.157
19,CCACAGCC,-0.109
20,AGGACTGG,-0.196
21,CCTCCTAG,-0.122
22,CTCCAGAG,-0.144
23,GTGACATA,0.237
24,GGTCGCGA,-0.151
25,AGGGTGCC,0.284

row,Sequence,PBM E-score
1,ATAGTCAA,0.0128
2,GGGTGTAA,0.223
3,ACCAAGGG,-0.00291
4,AATTCAAA,0.0432
5,ACACGAAT,0.222
6,GTATCGGA,0.00015
7,CAGCTCGG,-0.255
8,AATATGAA,-0.00664
9,CTGCCTGA,0.223
10,ACTACCGA,-0.157
11,ATTCCGCG,-0.113
12,AACCTAAT,0.109
13,AAGCCAGA,-0.0288
14,TAGATGGA,-0.0453
15,GAGTCCGC,-0.315
16,ATCACAAT,0.0624
17,CACGGAAA,0.204
18,ACGTGACG,0.0494
19,CTAGCAAC,0.109
20,TCCACGCA,-0.063
21,GTAGAATA,0.234
22,GGACGCAC,-0.242
